Test results published in article PMC9911399, “Two distinct binding modes provide the RNA-binding protein RbFox with extraordinary sequence specificity”.
Positions count from the first letter of the chain named. The list shows a part of the results.

T1: RBFOX1 RRM (Homo sapiens, UniProt Q9NWB1 109-208)
T1 sequence: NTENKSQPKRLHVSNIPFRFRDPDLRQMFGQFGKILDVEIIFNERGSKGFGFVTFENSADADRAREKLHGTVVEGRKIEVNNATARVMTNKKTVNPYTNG

B1: UUGAAUA (DNA:RNA)
RNA: GGGAGACCGGAAUUCAGAUUGUCCUUGAAUAUUAAAUCCCGUCGUAGCCACCA
DNA 1: CAATCTGAATTCCGGTCTCCC
DNA 2: TGGTGGCTACGACGGGATT
B2: AGCUAUA (DNA:RNA)
RNA: B1 RNA with U25A, U26G, G27C, A28U
DNA 1: CAATCTGAATTCCGGTCTCCC
DNA 2: TGGTGGCTACGACGGGATT
B3: CAACUUU (DNA:RNA)
RNA: B1 RNA with U25C, U26A, G27A, A28C, A29U, A31U
DNA 1: CAATCTGAATTCCGGTCTCCC
DNA 2: TGGTGGCTACGACGGGATT
B4: AGGCGGA (DNA:RNA)
RNA: B1 RNA with U25A, U26G, A28C, A29G, U30G
DNA 1: CAATCTGAATTCCGGTCTCCC
DNA 2: TGGTGGCTACGACGGGATT
B5: CGGAUCC (DNA:RNA)
RNA: B1 RNA with U25C, U26G, A29U, U30C, A31C
DNA 1: CAATCTGAATTCCGGTCTCCC
DNA 2: TGGTGGCTACGACGGGATT
B6: AAGGACG (DNA:RNA)
RNA: B1 RNA with U25A, U26A, A28G, U30C, A31G
DNA 1: CAATCTGAATTCCGGTCTCCC
DNA 2: TGGTGGCTACGACGGGATT
B7: GUAGUUU (DNA:RNA)
RNA: B1 RNA with U25G, G27A, A28G, A29U, A31U
DNA 1: CAATCTGAATTCCGGTCTCCC
DNA 2: TGGTGGCTACGACGGGATT
B8: AGCGCAU (DNA:RNA)
RNA: GGGAGACCGGAAUUCAGAUUGUCCAGCGCAUUUAAAUCCCGUCGUAGCCACCA
DNA 1: CAATCTGAATTCCGGTCTCCC
DNA 2: TGGTGGCTACGACGGGATT
B9: GGGAAGU (DNA:RNA)
RNA: B1 RNA with U25G, U26G, U30G, A31U
DNA 1: CAATCTGAATTCCGGTCTCCC
DNA 2: TGGTGGCTACGACGGGATT
B10: UUAUCCG (DNA:RNA)
RNA: B1 RNA with G27A, A28U, A29C, U30C, A31G
DNA 1: CAATCTGAATTCCGGTCTCCC
DNA 2: TGGTGGCTACGACGGGATT
B11: GCACUGA (DNA:RNA)
RNA: B1 RNA with U25G, U26C, G27A, A28C, A29U, U30G
DNA 1: CAATCTGAATTCCGGTCTCCC
DNA 2: TGGTGGCTACGACGGGATT
B12: CUGUGGG (DNA:RNA)
RNA: B1 RNA with U25C, A28U, A29G, U30G, A31G
DNA 1: CAATCTGAATTCCGGTCTCCC
DNA 2: TGGTGGCTACGACGGGATT
B13: CGACGUU (DNA:RNA)
RNA: B8 RNA with A25C, C27A, G28C, C29G, A30U
DNA 1: CAATCTGAATTCCGGTCTCCC
DNA 2: TGGTGGCTACGACGGGATT
B14: UCGAUUU (DNA:RNA)
RNA: B1 RNA with U26C, A29U, A31U
DNA 1: CAATCTGAATTCCGGTCTCCC
DNA 2: TGGTGGCTACGACGGGATT
B15: AGUGAUU (DNA:RNA)
RNA: B8 RNA with C27U, C29A, A30U
DNA 1: CAATCTGAATTCCGGTCTCCC
DNA 2: TGGTGGCTACGACGGGATT
B16: AGUUGGA (DNA:RNA)
RNA: B8 RNA with C27U, G28U, C29G, A30G, U31A
DNA 1: CAATCTGAATTCCGGTCTCCC
DNA 2: TGGTGGCTACGACGGGATT
B17: CUUCUAA (DNA:RNA)
RNA: B1 RNA with U25C, G27U, A28C, A29U, U30A
DNA 1: CAATCTGAATTCCGGTCTCCC
DNA 2: TGGTGGCTACGACGGGATT
B18: AAUGCAA (DNA:RNA)
RNA: B8 RNA with G26A, C27U, U31A
DNA 1: CAATCTGAATTCCGGTCTCCC
DNA 2: TGGTGGCTACGACGGGATT
B19: UCUUUAC (DNA:RNA)
RNA: B8 RNA with A25U, G26C, C27U, G28U, C29U, U31C
DNA 1: CAATCTGAATTCCGGTCTCCC
DNA 2: TGGTGGCTACGACGGGATT
B20: UCCGAAG (DNA:RNA)
RNA: B8 RNA with A25U, G26C, C29A, U31G
DNA 1: CAATCTGAATTCCGGTCTCCC
DNA 2: TGGTGGCTACGACGGGATT
B21: AUCGCGA (DNA:RNA)
RNA: B8 RNA with G26U, A30G, U31A
DNA 1: CAATCTGAATTCCGGTCTCCC
DNA 2: TGGTGGCTACGACGGGATT
B22: GAGAUCG (DNA:RNA)
RNA: B1 RNA with U25G, U26A, A29U, U30C, A31G
DNA 1: CAATCTGAATTCCGGTCTCCC
DNA 2: TGGTGGCTACGACGGGATT
B23: AAUCGAC (DNA:RNA)
RNA: B8 RNA with G26A, C27U, G28C, C29G, U31C
DNA 1: CAATCTGAATTCCGGTCTCCC
DNA 2: TGGTGGCTACGACGGGATT
B24: UACAAGG (DNA:RNA)
RNA: B1 RNA with U26A, G27C, U30G, A31G
DNA 1: CAATCTGAATTCCGGTCTCCC
DNA 2: TGGTGGCTACGACGGGATT
B25: CGCACUA (DNA:RNA)
RNA: B8 RNA with A25C, G28A, A30U, U31A
DNA 1: CAATCTGAATTCCGGTCTCCC
DNA 2: TGGTGGCTACGACGGGATT
B26: UGUAAUG (DNA:RNA)
RNA: B1 RNA with U26G, G27U, A31G
DNA 1: CAATCTGAATTCCGGTCTCCC
DNA 2: TGGTGGCTACGACGGGATT
B27: AAUUGAU (DNA:RNA)
RNA: B8 RNA with G26A, C27U, G28U, C29G
DNA 1: CAATCTGAATTCCGGTCTCCC
DNA 2: TGGTGGCTACGACGGGATT
B28: UCCUGAG (DNA:RNA)
RNA: B8 RNA with A25U, G26C, G28U, C29G, U31G
DNA 1: CAATCTGAATTCCGGTCTCCC
DNA 2: TGGTGGCTACGACGGGATT
B29: CGACCUA (DNA:RNA)
RNA: B8 RNA with A25C, C27A, G28C, A30U, U31A
DNA 1: CAATCTGAATTCCGGTCTCCC
DNA 2: TGGTGGCTACGACGGGATT
B30: ACUUUGG (DNA:RNA)
RNA: B8 RNA with G26C, C27U, G28U, C29U, A30G, U31G
DNA 1: CAATCTGAATTCCGGTCTCCC
DNA 2: TGGTGGCTACGACGGGATT
B31: UCAGCGA (DNA:RNA)
RNA: B8 RNA with A25U, G26C, C27A, A30G, U31A
DNA 1: CAATCTGAATTCCGGTCTCCC
DNA 2: TGGTGGCTACGACGGGATT

Biological target: T1, RBFOX1 RRM
Test: EMSA; HiTS-Eq, 1 nM pool, 10 min; buffer printed only for the single-RNA assays: 10 mM Tris pH 7.5, 150 mM NaCl, 3.4 mM EDTA, 0.001% NP-40, 30 C
Conditions: tags: His6 N-terminal (pET28a); label: 5' 32P
Method in brief: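 Purified RbFox RRM, wild type or mutant, was incubated for 10 min in 50 µL with 1 nM of a 5′-radiolabelled RNA pool carrying 7 randomized nucleotides, whose flanks were annealed to DNA oligonucleotides, over a series of increasing protein concentrations. Unbound RNA was resolved on 8% native PAGE, cut out, reverse-transcribed, barcoded by PCR and sequenced on an Illumina HiSeq 2500. Relative association constants were derived from changes in read counts for each RNA species versus the control reaction and normalised to the cognate motif.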

Row | Binder | binding signal
1 | B1 | 0.00895 KA relative to UGCAUGU
2 | B2 | 0.00341 KA relative to UGCAUGU
3 | B3 | 0.000994 KA relative to UGCAUGU
4 | B4 | 0.0127 KA relative to UGCAUGU
5 | B5 | 0.0242 KA relative to UGCAUGU
6 | B6 | 0.00506 KA relative to UGCAUGU
7 | B7 | 0.0112 KA relative to UGCAUGU
8 | B8 | 0.0144 KA relative to UGCAUGU
9 | B9 | 0.0302 KA relative to UGCAUGU
10 | B10 | 0.00602 KA relative to UGCAUGU
11 | B11 | 0.013 KA relative to UGCAUGU
12 | B12 | 0.0059 KA relative to UGCAUGU
13 | B13 | 0.00921 KA relative to UGCAUGU
14 | B14 | 0.0106 KA relative to UGCAUGU
15 | B15 | 0.00948 KA relative to UGCAUGU
16 | B16 | 0.00398 KA relative to UGCAUGU

Row | Binder | binding signal
17 | B17 | 0.00289 KA relative to UGCAUGU
18 | B18 | 0.0039 KA relative to UGCAUGU
19 | B19 | 0.00986 KA relative to UGCAUGU
20 | B20 | 0.0109 KA relative to UGCAUGU
21 | B21 | 0.00755 KA relative to UGCAUGU
22 | B22 | 0.017 KA relative to UGCAUGU
23 | B23 | 0.00344 KA relative to UGCAUGU
24 | B24 | 0.00739 KA relative to UGCAUGU
25 | B25 | 0.00504 KA relative to UGCAUGU
26 | B26 | 0.0145 KA relative to UGCAUGU
27 | B27 | 0.00581 KA relative to UGCAUGU
28 | B28 | 0.0159 KA relative to UGCAUGU
29 | B29 | 0.00202 KA relative to UGCAUGU
30 | B30 | 0.0131 KA relative to UGCAUGU
31 | B31 | 0.00561 KA relative to UGCAUGU
